In the supplement of paper PMC9433436:
± gives the standard deviation of the averaged measurements. The full ranking holds about 4,100 sequences; the median of “relative kcat/Km (krel) vs genomic leader AAAGAU” is about 1.7, and the highest 2% start at about 6.5. This is a selection; strong and weak results do not stand in their true shares.

Target: T1, E. coli RNase P holoenzyme (M1 P RNA + rnpA protein) (UniProt P0A7Y8)
T1 sequence: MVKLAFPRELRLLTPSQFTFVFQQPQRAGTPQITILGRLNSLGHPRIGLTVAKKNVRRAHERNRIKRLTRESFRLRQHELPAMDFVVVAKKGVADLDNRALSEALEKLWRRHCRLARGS
Experiment: relative kcat/Km (krel) vs genomic leader AAAGAU (relative (reference leader = 1)); higher = faster RNase P cleavage
Protocol: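 HTS-Kin: a pool of ptRNA-Met (21C construct) with all 4096 combinations of 5' leader nucleotides N(-6) to N(-1) was processed in vitro by E. coli RNase P (P RNA + rnpA/C5 protein) under multiple-turnover conditions at 37 C, pH 8, 17.5 mM MgCl2. Residual substrate was Illumina-sequenced at several fractions reacted, and relative kcat/Km (krel) was computed by internal competition kinetics, calibrated to the genomic leader (AAAGAU = 1). The listed hexamer is the varied N(-6)..N(-1) leader (DNA letters), and it sits between a fixed 5' stem-loop flank (GCAUGCACGAAAGUGCGUGCUAUGAA) and the mature tRNA-Met starting GGCUACGUAGCUCAGUUGG. Two technical replicates are averaged.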

[1] = fraction of substrate reacted: ~9-10% (9.79% repeat 1, 9.1% repeat 2)
[2] = fraction of substrate reacted: ~13-16% (15.68% repeat 1, 13.17% repeat 2)
[3] = fraction of substrate reacted: ~26-29% (28.66% repeat 1, 26.4% repeat 2)

Sequence | relative kcat/Km [1] | relative kcat/Km [2] | relative kcat/Km [3]
AAAATA | 1.99 ± 0.77 | 1.39 ± 0.27 | 1.48 ± 0.29
TCAATA | 1.94 ± 0.68 | 1.41 ± 0.13 | 2.04 ± 0.44
TCAGAT | 1.79 ± 0.51 | 1.84 ± 0.47 | 2.74 ± 1.1
GGACAG | 1.29 ± 1.1 | 1.1 ± 0.61 | 2.25 ± 0.42
CCACAA | 2 ± 1.3 | 1.11 ± 0.28 | 1.97 ± 0.076
ATTGTC | 1.6 ± 1.2 | 1.13 ± 0.5 | 1.27 ± 0.089
AATGAT | – | 0.785 ± 0.19 | 1.01 ± 0.46
CCCAGA | 3.55 ± 1.8 | 3.71 ± 0.36 | 5.67 ± 1.6
GAAAGA | 2.87 ± 0.97 | 2.67 ± 0.36 | 3.03 ± 0.93
CTACGT | 0.396 ± 0.012 | 0.978 ± 0.12 | 1.13 ± 1.1
TTGTAT | 2.5 ± 0.42 | 3.63 ± 0.7 | 5.73 ± 2.7
TAGCCA | 1.23 ± 0.58 | 1.16 ± 0.53 | 1.5 ± 0.041
TCAAGT | 0.352 ± 0.22 | – | –
GTTAGC | 2.31 ± 1.2 | 2.84 ± 0.39 | 4.17 ± 1.6
TTATGA | 4.01 ± 1.1 | 4.52 ± 1.5 | 6.17 ± 2.4
GGCTGC | 2.18 ± 0.96 | 1.98 ± 0.51 | 3.23 ± 1.1
TTTATG | – | 1.01 ± 0.36 | 2.41 ± 0.31
GGTAAT | 1.63 ± 1.2 | 1.87 ± 0.11 | 3.01 ± 1.2
CCCTCG | 1.92 ± 1 | 1.67 ± 0.5 | 2.44 ± 0.18
GATGAG | – | – | 0.577 ± 0.44
GGTAGG | – | – | 1.74 ± 0.56
GCTTGC | 1.53 ± 0.25 | 2 ± 0.29 | 2.24 ± 0.16
TTAATT | 2.28 ± 0.9 | 2.55 ± 0.086 | 3.26 ± 1.3
TGCGCT | 1.39 ± 0.96 | 0.987 ± 0.66 | 0.931 ± 0.1
TATGAT | – | 0.9949 ± 0.0058 | 1.35 ± 0.48
ACTCAT | 2.15 ± 1.1 | 3.17 ± 0.74 | 4.67 ± 1.8
AGTAGC | 2.5 ± 0.87 | 3.129 ± 0.0091 | 4.16 ± 1.5

Sequence | relative kcat/Km [1] | relative kcat/Km [2] | relative kcat/Km [3]
TACTAC | 5.21 ± 2 | 6.73 ± 1.9 | 9.59 ± 4
CGGTCA | 1.35 ± 0.55 | 1.02 ± 0.14 | 1.03 ± 0.035
GAGCGA | – | 1.11 ± 0.029 | 2.03 ± 0.083
ATAACA | 0.435 ± 0.37 | 0.897 ± 0.17 | 1.43 ± 0.58
ATAGTG | – | 0.232 ± 0.052 | 0.534 ± 0.12
AGTCTA | 2.09 ± 0.71 | 2.64 ± 0.35 | 3.02 ± 0.93
ATCCAA | 3.15 ± 0.43 | 4.2 ± 1.2 | 6.3 ± 2.3
GGGAAC | 0.777 ± 0.4 | 0.986 ± 0.2 | 1.59 ± 0.99
ACACTT | 1.46 ± 0.96 | 1.91 ± 0.27 | 2.34 ± 0.7
ATAAGA | 1.69 ± 0.23 | 2.23 ± 0.39 | 3.63 ± 1.3
CGCAGA | 3.15 ± 0.35 | 3.16 ± 0.97 | 5.53 ± 2.5
GAGGGA | – | – | 1.45 ± 1
GTTTGA | 2.67 ± 0.19 | 3.75 ± 1.1 | 5.98 ± 2
CCATAC | 3.28 ± 1.1 | 3.35 ± 0.48 | 4.57 ± 1
CATACT | 2.36 ± 0.94 | 1.75 ± 0.31 | 2.93 ± 1.1
CTATAT | 4.48 ± 1.6 | 5.55 ± 0.85 | 7.37 ± 2.9
GCGTAG | 0.68 ± 0.52 | 0.736 ± 0.18 | 1.76 ± 0.13
GGTACA | 1.32 ± 0.12 | 1.26 ± 0.42 | 1.65 ± 0.83
CCTGAG | 1.01 ± 0.076 | – | 1.43 ± 0.3
CCGGCC | 1.66 ± 0.4 | 0.625 ± 0.54 | –
AAGACA | – | 1.23 ± 0.58 | 1.27 ± 0.12
TAATTA | 2.15 ± 1.5 | 2.05 ± 0.57 | 2.99 ± 1.1
GGGTAG | 0.364 ± 0.18 | 0.447 ± 0.1 | 1.45 ± 0.65
GTTTGC | 2.91 ± 0.62 | 3.18 ± 0.81 | 5.13 ± 1.9
GATACA | 1.48 ± 1.3 | 1.55 ± 0.13 | 2.07 ± 0.37
AGCAGA | 2.87 ± 1 | 3.03 ± 0.52 | 4.52 ± 1.2
AGCGAT | – | 1.3 ± 0.62 | 1.74 ± 0.95

Sequence | relative kcat/Km [1] | relative kcat/Km [2] | relative kcat/Km [3]
GGGAAG | – | 0.702 ± 0.34 | 1.37 ± 0.3
TGCGAC | 2.22 ± 0.51 | 2.13 ± 0.43 | 2.9 ± 0.61
AGGAAG | – | – | 1.17 ± 0.35
CGGCAC | – | 0.199 ± 0.051 | 1.36 ± 0.12
ACGCAC | 1.83 ± 0.3 | 2.12 ± 0.95 | 3.59 ± 1.2
CCCACA | 3.1 ± 1.1 | 2.72 ± 0.73 | 3.98 ± 1.2
CAGTCC | 2.61 ± 1.2 | 2.57 ± 0.42 | 3.18 ± 1.2
TCTTGG | – | – | 0.662 ± 0.22
TGGAAT | 1.2 ± 1.2 | 1.38 ± 0.81 | 1.39 ± 0.72
AACGTC | 3.14 ± 0.98 | 2.925 ± 0.0087 | 3.65 ± 1.3
GTCCGG | – | – | 1.17 ± 0.26
CTAGAT | – | 1.15 ± 0.17 | 1.83 ± 0.17
GTGGGC | – | – | 0.684 ± 0.56
AATACG | – | – | 1.3 ± 0.24
TGTAAA | 3.21 ± 0.83 | 3.92 ± 0.81 | 5.91 ± 2.4
CAGGGA | – | 0.949 ± 0.58 | 1.06 ± 1
GGCGTG | – | – | 0.503 ± 0.2
AAACAC | 1.97 ± 0.27 | 1.84 ± 0.73 | 3.04 ± 1.1
GCAAAG | – | – | 0.616 ± 0.086
ACCGTT | 1.28 ± 0.8 | 1.57 ± 1.3 | 2.09 ± 1.2
ACGGTC | – | – | 1.71 ± 1.7
CGGTCG | 0.745 ± 0.15 | – | 0.557 ± 0.52
CTGCCA | 1.58 ± 1 | 0.692 ± 0.67 | 1.19 ± 0.3
AGCTCG | 1.18 ± 0.16 | 1.15 ± 0.28 | 2.12 ± 0.41
CTATCA | 1.75 ± 0.56 | 1.57 ± 0.39 | 2.66 ± 0.79
AGCGAA | 3.33 ± 1 | 3.07 ± 0.78 | 4.19 ± 1.2
CGTGCT | – | – | 0.773 ± 0.17

Sequence | relative kcat/Km [1] | relative kcat/Km [2] | relative kcat/Km [3]
TGATGA | 2.96 ± 1.2 | 3.7 ± 0.48 | 5.44 ± 1.6
AGATAG | 2.15 ± 1.1 | 1.52 ± 0.42 | 3.47 ± 0.88
CTGTCA | 2.15 ± 1.4 | 1.44 ± 0.43 | 1.96 ± 0.52
TGTGTT | – | – | 1.29 ± 1.3
TTCTGC | 4.12 ± 0.25 | 5.95 ± 2.2 | 8.28 ± 3.5
GTTATA | 2.5 ± 1.4 | 2.5 ± 0.5 | 3.36 ± 1.1
TGTCCC | 2.24 ± 0.07 | 2.39 ± 0.16 | 3.36 ± 1.3
CTGCCC | 1.61 ± 0.018 | 0.948 ± 0.56 | 1.2 ± 0.47
GATAGG | 0.642 ± 0.43 | 0.672 ± 0.65 | 0.997 ± 0.033
CACACA | 3.18 ± 2.2 | 3.49 ± 0.55 | 4.58 ± 2.1
CTAATC | 2.06 ± 1.6 | 1.32 ± 0.17 | 1.81 ± 0.34
GTCAGG | 0.667 ± 0.23 | 1.03 ± 0.2 | 2.57 ± 1.1
AACTCG | 1.54 ± 1.4 | 0.733 ± 0.27 | 2.22 ± 0.29
TATGTG | – | – | 0.506 ± 0.12
CGTCCA | 1.68 ± 1.7 | 1.5 ± 0.38 | 1.99 ± 0.085
TTAGTC | 1.86 ± 0.93 | 2.21 ± 0.28 | 2.38 ± 1.1
ACAATA | 1.13 ± 1.1 | 0.832 ± 0.79 | 1.73 ± 0.44
ACTCCC | 1.78 ± 1.7 | 1.64 ± 0.38 | 1.8 ± 0.23
AAGTAG | – | 1.2 ± 0.21 | 2.2 ± 0.72
GATACG | – | – | 1.52 ± 0.09
GATATA | 1.7 ± 0.6 | 1.98 ± 0.03 | 2.46 ± 0.75
CACCGA | 3.39 ± 1.4 | 3.9 ± 0.93 | 6.22 ± 2.1
CTTCGT | – | – | 1.66 ± 1.4
CGATGT | 0.484 ± 0.21 | 1.12 ± 0.33 | 1.49 ± 0.93
